112 sequences from the supplement of paper PMC3724861 can be followed below.

The list shows a part of the results.

The subject of this test is T1, Caupolican (Caup) homeodomain DNA-binding domain.
T1 sequence: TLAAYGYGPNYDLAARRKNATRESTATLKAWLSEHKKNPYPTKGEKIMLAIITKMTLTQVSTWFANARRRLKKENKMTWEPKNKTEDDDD
Description: PBM E-score (8-mer, recovered from the published 9-mer minima) (E-score (dimensionless, -0.5 to 0.5)); Drosophila protein; higher = stronger relative binding preference, active = 0.31 or more. The method in brief:
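Caup's homeodomain DNA-binding domain (residues 214-303) was produced by in vitro transcription and translation and applied at 100 nM to custom-designed protein binding microarrays. Each value is an enrichment score giving relative binding preference for a short DNA word; higher means stronger. Published 9-mer scores were the minimum of their two constituent 8-mer scores, and the 8-mer values were recovered from those minima. A cutoff of 0.31 marks candidate binding sequences.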
On to AGACTAAT, for which the “PBM E-score” value was inactive: 0.0912.

TAGAGTGA: the “PBM E-score” value was inactive: 0.00292. In the case of CATGTAAC it was active: 0.431; in that of ACCTGCTC, inactive: -0.00329; in that of CCCCACTC, inactive: -0.193.

For AGCTGGCG, the “PBM E-score” value was inactive: -0.198. Regarding AACTAGGT, the “PBM E-score” value was ≥ 0.123.

Turning to CCTGGACG, the “PBM E-score” value is inactive: -0.136. The same measure for ACGCAATC: inactive: -0.0194; for ACGTTCCA: inactive: 0.0136; for AATGACTG: inactive: 0.0933. For the sequence AACTGAGG, the “PBM E-score” value was inactive: -0.0316. On to GGTGAACA, for which the “PBM E-score” value was inactive: 0.183. Consider AGCAATTA, for which the “PBM E-score” value was inactive: 0.0226. Consider GCGCCTTA, for which the “PBM E-score” value is inactive: -0.112. Turning to AACCACAA, the “PBM E-score” value is inactive: 0.0387.

Turning to AGGTACAA, the “PBM E-score” value is active: 0.345. In the case of CGAAGCCA, the “PBM E-score” value was inactive: -0.167. The same measure for ATTCCGAC: inactive: 0.0514; for CGACAGAC: inactive: 0.0543; for CGGAGGCA: ≥ -0.131.

As to AAATCTCT, the “PBM E-score” value is inactive: 0.0724.

As to GTAACTAC, the “PBM E-score” value is inactive: 0.296. Regarding AACCTGTA, the “PBM E-score” value was inactive: 0.217. In the case of AGTGGACG it was inactive: 0.00183; in that of ACTATTTG, inactive: 0.153. Consider GACCCCGC, for which the “PBM E-score” value is inactive: -0.186. Regarding ACGTTGCA, the “PBM E-score” value is inactive: 0.0715. The same measure for GAAGACGA: inactive: -0.027; for ATTCGAAT: inactive: 0.0996; for ATGCCGAA: inactive: -0.0191. Take CCACCCTC: the “PBM E-score” value is inactive: -0.162.

Regarding CCCAGGAA, the “PBM E-score” value is inactive: -0.0999. The same measure for CTTGGCTA: ≥ 0.00834; for TGCCCGCA: ≥ -0.0686; for ATATACGC: inactive: 0.0323. As to CGAAGTCC, the “PBM E-score” value was inactive: -0.149. Take GTATAAGA: the “PBM E-score” value was inactive: 0.112. As for GACCCTCA, the “PBM E-score” value is inactive: -0.187. Turning to AATGCTGA, the “PBM E-score” value is inactive: 0.0809. On to GCCGCTGA, for which the “PBM E-score” value was inactive: -0.126. With GAGACAGC, the “PBM E-score” value was inactive: -0.0488. CCCACCTC: the “PBM E-score” value is inactive: -0.19. As to AGCTTACG, the “PBM E-score” value is inactive: -0.0965. Consider AATTATGA, for which the “PBM E-score” value is inactive: 0.134. The same measure for GCAGATAA: inactive: 0.00489; for CCAAGTCG: inactive: -0.0916; for ATCGTGCG: inactive: 0.0382.

For the sequence CGCCTAAG, the “PBM E-score” value is inactive: -0.0812. In the case of GAACTCCA it was inactive: 0.0163; in that of TCCACAGA, inactive: -0.0276. Consider CGCCACTA, for which the “PBM E-score” value was inactive: -0.12.

As for CGGAGACG, the “PBM E-score” value is ≥ -0.0273.

On to CGAACTGA, for which the “PBM E-score” value is inactive: -0.00138.

CCTGTTGA: the “PBM E-score” value is inactive: 0.132. Consider AGAGTACA, for which the “PBM E-score” value is inactive: 0.187. The same measure for ACCCCGCA: inactive: -0.142; for AGACACCA: inactive: 0.0767; for TAAGATCA: inactive: 0.131.

As to GAATATGC, the “PBM E-score” value is inactive: 0.00016.

Turning to GCAAGCCA, the “PBM E-score” value was inactive: -0.0551. For GAGCGTTA, the “PBM E-score” value was inactive: -0.0189. On to GATACGGA, for which the “PBM E-score” value is inactive: 0.0443. As to CTACGGAC, the “PBM E-score” value was inactive: -0.0424. In the case of ATTGGCAC, the “PBM E-score” value is inactive: 0.0808. Regarding ATTACGGG, the “PBM E-score” value is inactive: 0.00511. Regarding AGTTGTAT, the “PBM E-score” value was inactive: 0.231. Turning to CTCGCTAA, the “PBM E-score” value is inactive: 0.067.

For the sequence ATTCAAAT, the “PBM E-score” value was inactive: 0.145. Turning to AGATCGCT, the “PBM E-score” value was inactive: -0.0259. On to AGCAATAA, for which the “PBM E-score” value was inactive: 0.0348.

With GACTTGCA, the “PBM E-score” value is inactive: 0.0909. Regarding AACGGAAC, the “PBM E-score” value was inactive: 0.0201.

With ATGCATGC, the “PBM E-score” value is inactive: 0.107. Consider TCGACCCA, for which the “PBM E-score” value was inactive: -0.0821. Consider AAAAACAG, for which the “PBM E-score” value was inactive: 0.0835. As for AGGCAAAT, the “PBM E-score” value is inactive: 0.0372.

On to ATGTTATC, for which the “PBM E-score” value is active: 0.351. In the case of CGGGAAGA, the “PBM E-score” value was ≥ -0.0231. The same measure for AGGCGAGG: inactive: -0.231. Take ACAAACTG: the “PBM E-score” value is inactive: 0.0701. For the sequence CTACTGAC, the “PBM E-score” value was inactive: 0.0337. As for ATACCGGG, the “PBM E-score” value is inactive: -0.0214. For the sequence GGTGTCAC, the “PBM E-score” value is inactive: 0.128. Take GCCAGACA: the “PBM E-score” value is inactive: 0.0359. As to AGTGCTGG, the “PBM E-score” value is inactive: -0.1. In the case of TGTATCAA it was active: 0.315; in that of ACCCGAGC, inactive: -0.0823; in that of AGAACTAT, inactive: 0.0799.

Consider AGTTATCA, for which the “PBM E-score” value is inactive: 0.112. In the case of CGCCTCCG it was inactive: -0.187; in that of GAGCTATA, inactive: -0.0524. As for ATTCTCTG, the “PBM E-score” value is inactive: -0.021. As to GGCCAACA, the “PBM E-score” value was inactive: 0.0188. The same measure for CCCAGCGA: inactive: -0.18; for ACACAGAT: inactive: 0.243; for CTACCTTC: inactive: -0.0371.

As to ACGAGTTC, the “PBM E-score” value was inactive: 0.11.

For CAAGACAG, the “PBM E-score” value was inactive: 0.0905. For AGACGGTG, the “PBM E-score” value is inactive: -0.141. Regarding CAGCAATG, the “PBM E-score” value is inactive: 0.0573. Consider CTCATCGA, for which the “PBM E-score” value was inactive: -0.0758. In the case of AAAGCAGC, the “PBM E-score” value was inactive: -0.05. For ACTACCCG, the “PBM E-score” value is inactive: -0.0238.

As for CAAAGACG, the “PBM E-score” value is inactive: -0.0927.

Turning to AACGCCAC, the “PBM E-score” value is inactive: -0.0639.

In the case of CATGATTA, the “PBM E-score” value was inactive: 0.206. In the case of ACCTCTCA, the “PBM E-score” value was inactive: -0.0642. In the case of ATGGGGAC it was inactive: -0.035. The same measure for CTACTAAC: inactive: 0.125; for ATGCCGAC: inactive: 0.0283; for GCCGCCGC: inactive: -0.27.
